Experimental data reported in PubChem BioAssay AID602332 (National Center for Advancing Translational Sciences (NCATS), 2012).
Values joined by “and” are separate entries in the source; they are usually repeats but may differ in a detail not shown here. Equal entries are not always repeated. Out of some 420,000 compounds screened, about 75 (0.02%) were called active. Inconclusive means that the source gave no clear call. Such entries were picked first, then a sample of the others. Calls come from the whole dose curve; as a rule, active = well fitted activation curve with a large enough effect; inconclusive = small, poorly fitted or top-dose-only effect; inactive = no such curve, though single readings can be large or run the other way. Where the call is inconclusive, the potency comes from a doubtful curve fit.

Experiment: qHTS for Inducers of the Endoplasmic Reticulum Stress Response (ERSR) in Human Glioma: qHTS; note: nearly all actives have a fitted effect of over 35% in size; for activation: % of control where 0% means no effect
Conditions: U87-MG GRP78 promoter luciferase reporter, 16 h; activation: active compounds read high
Outline: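 Stably transfected U87-MG human glioma cells carrying a GRP78-based luminescent sensor were seeded at 1000 cells/well, pin-dosed with compounds and incubated 16 h. Luciferase reagent was then added, and end-point luminescence was read after 10 min at room temperature.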
Potency is the fitted concentration of half-maximal effect; tags give direction and shape of the fitted curve.

SMILES	Potency	activation
Cc1ccc(OCC(=O)N/N=C/C=C/c2ccco2)cc1	inconclusive: 35.5 µM [activator, partial curve, poor fit]	–
COC(=O)c1ccc(C(=O)NCC2Cc3cc(F)cc(-c4cncnc4)c3O2)cc1 (configuration not stated)	inconclusive: 44.7 µM [activator, partial curve, poor fit]	–
O=C(CNC(=S)N(Cc1ccccc1F)C1CCCCC1)NCC1CCCO1 (configuration not stated)	inconclusive: 7.08 µM [activator, partial curve, poor fit]	–
O=S1(=O)Nc2c(ccc3cccnc23)-c2ccccc21	inconclusive: 17.8 µM [activator, single point]	–
Cc1cc(C)c2c(N)c(-c3nc4ccccc4[nH]3)sc2n1	inconclusive: 11.2 µM [activator, partial curve, poor fit]	–
CCOC(=O)c1nn(-c2ccc(C)cc2)cc1C(=O)c1ccccc1	inconclusive: 7.08 µM [activator, partial curve, poor fit]	–
CC12CCC(=O)C=C1CCC1C2CCC2(C)C(c3csc(N)n3)CCC12 (configuration not stated)	–	inactive: -7.84%
O=c1c2ccccc2nc(SCc2cn3ccsc3n2)n1-c1ccccc1	–	inactive: -1.4%
O=C(c1cccc(F)c1)N1CCC2(CCCN(C(c3ccccc3)c3ccccc3)C2)CC1	inconclusive: 15.8 µM [activator, full curve]	–
C[C@]12CCC(=O)C[C@@H]1CC[C@@H]1[C@@H]2CC[C@]2(C)C=CC[C@@H]12	–	inactive: -3.36% and inactive: -5.02%
COc1ccc(CCNC(=O)c2ccc3c(c2)N(Cc2ccccc2F)C(=O)c2ccccc2S3=O)cc1OC (configuration not stated)	inconclusive: 12.6 µM [activator, single point]	–
C=Cn1cc[n+](CC(=O)c2ccc(Cl)c(Cl)c2)c1	inconclusive: 56.2 µM [activator, single point]	–
CCc1cc2c(COC(=O)c3c(C)noc3C)cc(=O)oc2cc1O	inconclusive: 11.2 µM [activator, single point]	–
CCNC(=O)Nc1cc(S(=O)(=O)Nc2ccc(OC)cc2)ccc1N1CCOCC1	–	inactive: -3.32%
COc1ccc(-c2coc3c(OC)c(OC)cc(O)c3c2=O)cc1	inconclusive: 44.7 µM [activator, partial curve, poor fit]	–
Cc1cccnc1NC(=S)NC(=O)c1cncc(Br)c1	–	inactive: 4.33%
CCNc1ccc(Br)cc(C(=O)/C=C/c2ccc3c(c2)OCO3)c1=O	inconclusive: 44.7 µM [activator, partial curve, poor fit]	–
